PubChem BioAssay (Tox21)
Where “and” joins values, the source holds several entries; their conditions need not be identical. Equal values may be shown once. Inconclusive results, whose numbers are uncertain, are shown with a selection of clear calls. A potency beside an inconclusive call is a rough fit, not a confirmed value. Calls of active or inactive are those of the source. The call rests on the fitted dose curve; in most records, active means well fitted curve in the direction sought with a large enough effect in the repeat runs; inconclusive means weak or mixed curves; inactive means no such curve, though single readings can be large; an effect the other way counts as inactive or inconclusive.

biological target: Aromatase (Homo sapiens) (UniProt P11511); assay: qHTS assay to identify aromatase inhibitors (AID 743083); settings: MCF-7 aro ERE, testosterone-driven ERE luciferase, 24 h; series mostly up to 70.3 µM; further: nearly all actives have a fitted effect of over 55% in size
Potency means the concentration at half of the fitted maximal effect; tags describe the fitted curve by direction and shape.

UniProt P11511, sequence (P11511 whole entry, looked up): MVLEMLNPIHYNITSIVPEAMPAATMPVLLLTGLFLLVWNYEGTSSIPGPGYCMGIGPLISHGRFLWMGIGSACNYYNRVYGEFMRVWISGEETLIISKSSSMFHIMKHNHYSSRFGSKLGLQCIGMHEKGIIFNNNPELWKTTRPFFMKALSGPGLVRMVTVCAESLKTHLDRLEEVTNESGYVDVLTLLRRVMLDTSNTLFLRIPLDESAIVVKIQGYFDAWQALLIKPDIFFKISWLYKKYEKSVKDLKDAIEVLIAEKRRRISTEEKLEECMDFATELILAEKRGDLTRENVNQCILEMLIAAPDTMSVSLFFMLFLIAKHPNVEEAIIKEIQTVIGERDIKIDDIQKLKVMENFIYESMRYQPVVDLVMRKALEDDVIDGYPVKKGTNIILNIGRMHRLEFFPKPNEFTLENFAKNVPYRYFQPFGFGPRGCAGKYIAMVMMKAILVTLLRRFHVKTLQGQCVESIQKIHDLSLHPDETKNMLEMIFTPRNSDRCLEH

Compound	Potency
Nc1ccc(N)cc1	inconclusive: 68.9 µM [inhibitor, single point]
O=[Se]=O	inactive
C[C@@H]1CC[C@H]2[C@@H](C)C(=O)O[C@@H]3O[C@@]4(C)CC[C@@H]1[C@]32OO4	inconclusive: 26.6 µM [inhibitor, partial curve, poor fit]
CCN(CC)C(=S)[S-].CCN(CC)C(=S)[S-].[Zn+2]	active: 0.096 µM
Cc1ccccc1OP(=O)(Oc1ccccc1C)Oc1ccccc1C	inconclusive: 30.8 µM [inhibitor, partial curve]
O=[N+]([O-])/N=C1\NCCN1Cc1ccc(Cl)nc1	inactive

test system: not listed separately; assay: qHTS assay to identify aromatase inhibitors - cell viability counter screen (AID 743084); settings: MCF-7 aro ERE viability, CellTiter-Fluor, 24 h; series mostly up to 70.3 µM;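 further: cells stimulated with testosterone during compound exposure; nearly all actives have a fitted effect of over 55% in size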

Compound	Potency
O=S(=O)(O)O	inconclusive: 22.3 µM [rising, partial curve, poor fit]
CC(=O)/C=C/c1ccc2c(c1)OCO2	inconclusive: 68.9 µM [cytotoxic, single point]
C[C@@H]1CC[C@H]2[C@@H](C)C(=O)O[C@@H]3O[C@@]4(C)CC[C@@H]1[C@]32OO4	inconclusive: 33.5 µM [cytotoxic, partial curve, poor fit]
C=CCOC(Cn1ccnc1)c1ccc(Cl)cc1Cl (centres undefined)	inconclusive: 77.2 µM [cytotoxic, partial curve, poor fit]
C#C[C@]1(O)C=C[C@H]2[C@@H]3CCC4=CC(=O)CC[C@@H]4[C@H]3CC[C@@]21CC	inactive
c1ccc(N=NNc2ccccc2)cc1	inconclusive: 50.2 µM [cytotoxic, partial curve] and inconclusive: 61.1 µM [cytotoxic, single point]
CC(=O)[O-].CC(=O)[O-].[Hg+2]	active: 3.86 µM
CCOP(=S)(OCC)OP(=S)(OCC)OCC	inactive

biological target: Aryl hydrocarbon receptor (Homo sapiens) (UniProt P35869); assay: qHTS assay to identify small molecule that activate the aryl hydrocarbon receptor (AhR) signaling pathway (AID 743085); settings: HepG2 AhR-luc (HG2L7.5c1), luciferase, 24 h; series mostly up to 70.3 µM; further: nearly all actives have a fitted effect of over 15% in size
In short: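 HepG2 cells stably carrying a 20-DRE firefly luciferase reporter (HG2L7.5c1) treated with compound for 24 hr at 37C. Luciferase read by ONE-Glo luminescence, with CellTiter-Fluor viability read first.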

UniProt P35869, sequence (P35869 whole entry, looked up): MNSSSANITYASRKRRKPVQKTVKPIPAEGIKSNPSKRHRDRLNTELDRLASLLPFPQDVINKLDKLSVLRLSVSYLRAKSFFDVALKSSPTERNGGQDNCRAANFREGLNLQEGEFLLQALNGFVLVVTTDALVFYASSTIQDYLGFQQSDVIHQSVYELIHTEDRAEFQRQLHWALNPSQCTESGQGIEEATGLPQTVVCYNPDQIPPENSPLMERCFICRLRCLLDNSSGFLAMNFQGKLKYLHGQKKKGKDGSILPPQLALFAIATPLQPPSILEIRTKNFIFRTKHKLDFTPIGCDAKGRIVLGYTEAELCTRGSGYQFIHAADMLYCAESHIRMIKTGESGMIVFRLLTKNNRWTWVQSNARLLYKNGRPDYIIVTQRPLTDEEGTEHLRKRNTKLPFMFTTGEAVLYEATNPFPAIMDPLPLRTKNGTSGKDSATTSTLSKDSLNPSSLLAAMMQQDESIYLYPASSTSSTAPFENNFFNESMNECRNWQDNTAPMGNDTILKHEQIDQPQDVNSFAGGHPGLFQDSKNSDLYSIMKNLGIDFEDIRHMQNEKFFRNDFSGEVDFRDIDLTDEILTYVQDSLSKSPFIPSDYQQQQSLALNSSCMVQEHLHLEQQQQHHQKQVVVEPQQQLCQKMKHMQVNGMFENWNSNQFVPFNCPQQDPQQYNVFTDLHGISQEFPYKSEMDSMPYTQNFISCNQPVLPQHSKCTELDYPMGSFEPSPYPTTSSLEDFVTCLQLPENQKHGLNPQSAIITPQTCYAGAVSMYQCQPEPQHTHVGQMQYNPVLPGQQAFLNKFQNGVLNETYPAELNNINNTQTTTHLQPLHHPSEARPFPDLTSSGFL

Compound	Potency
CC(=O)/C=C/c1ccc2c(c1)OCO2	inconclusive: 12.3 µM [activator, partial curve, poor fit]
Cc1ccccc1C(=O)Nc1cccc(OC(C)C)c1	inconclusive: 6.11 µM [activator, single point]
C=CCOC(Cn1ccnc1)c1ccc(Cl)cc1Cl (centres undefined)	inconclusive: 26.6 µM [activator, partial curve] and inconclusive: 9.72 µM [activator, partial curve] and inconclusive: 24.3 µM [activator, partial curve]
Cc1ccccc1OP(=O)(Oc1ccccc1C)Oc1ccccc1C	inconclusive: 61.4 µM [activator, partial curve]
Fc1ccc(Oc2ccnc3cc(Cl)cc(Cl)c23)cc1	inconclusive: 68.6 µM [activator, single point]
